# Reference: the supplement of paper PMC3334620
# In all, about 33,000 sequences were measured (“E-score (-0.5 to 0.5)”: median about -0.021, highest 2% from about 0.32 on). The list shows a part of the results.
# Target: T1, Zap1 (UniProt P47043)
# T1 sequence: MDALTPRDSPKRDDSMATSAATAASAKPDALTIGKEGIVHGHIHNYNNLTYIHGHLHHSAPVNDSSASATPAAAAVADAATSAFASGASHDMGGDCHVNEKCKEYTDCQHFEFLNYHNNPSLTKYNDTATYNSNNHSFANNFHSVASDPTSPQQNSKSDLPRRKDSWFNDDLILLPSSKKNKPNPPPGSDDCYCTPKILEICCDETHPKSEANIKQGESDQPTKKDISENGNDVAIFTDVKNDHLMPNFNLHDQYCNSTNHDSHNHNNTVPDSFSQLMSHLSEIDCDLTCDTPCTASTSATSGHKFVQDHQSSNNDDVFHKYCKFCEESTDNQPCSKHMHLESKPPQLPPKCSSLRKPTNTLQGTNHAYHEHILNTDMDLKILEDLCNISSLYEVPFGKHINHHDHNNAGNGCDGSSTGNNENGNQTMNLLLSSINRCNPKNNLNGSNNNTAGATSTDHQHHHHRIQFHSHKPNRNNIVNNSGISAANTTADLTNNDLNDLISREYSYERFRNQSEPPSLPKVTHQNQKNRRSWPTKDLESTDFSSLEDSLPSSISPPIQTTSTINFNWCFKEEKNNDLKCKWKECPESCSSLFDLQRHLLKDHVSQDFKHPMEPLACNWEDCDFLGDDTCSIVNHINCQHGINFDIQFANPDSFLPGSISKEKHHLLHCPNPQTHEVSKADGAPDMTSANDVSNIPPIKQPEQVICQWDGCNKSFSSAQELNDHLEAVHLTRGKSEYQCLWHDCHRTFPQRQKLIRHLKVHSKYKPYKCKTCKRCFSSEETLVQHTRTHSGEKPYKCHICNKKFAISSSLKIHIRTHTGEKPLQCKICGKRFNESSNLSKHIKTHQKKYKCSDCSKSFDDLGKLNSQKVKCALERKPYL
# Test: PBM E-score (8-mer binding enrichment) (E-score (-0.5 to 0.5)); higher = stronger / more preferred TF binding; most listed sequences are background and not binding sites
# Conditions: protein concentration: 200 nM; construct: GST-full length
# Procedure, shortened: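 GST-tagged yeast TFs (full-length or DNA-binding domain) were made by PURExpress in vitro transcription/translation and applied at about 100-200 nM to universal all-10-mer Agilent arrays. The arrays were made double-stranded by primer extension, on fresh or once-stripped slides. Bound protein was detected with fluorescent anti-GST, and scans were normalised with masliner. Each ungapped eight-base word, pooled with its reverse complement, received an E-score (modified Wilcoxon-Mann-Whitney statistic) from the Universal PBM Analysis Suite.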
row,Sequence,PBM E-score
1,AGGTGAGA,0.069
2,CTAGTACA,-0.0865
3,GGCTATTA,0.0192
4,CGTACCAA,-0.0153
5,CTCTGTGA,0.0873
6,ACCACGAA,0.191
7,ACGTGATG,-0.167
8,AAACAGCG,-0.0468
9,GTGGACGA,-0.14
10,ATGGCAGC,-0.315
11,CTCACTGC,-0.0511
12,AGGAAAAC,0.0388
13,GACTATTA,-0.0145
14,TTTAAAAA,0.0885
15,ATGGATAA,0.0597
16,CATGTAGG,-0.028
17,AGGGAATC,-0.204
18,ATAACGAT,-0.078
19,AGGGAAGA,-0.27
20,AGCCGTCG,-0.189
21,AAATACTG,0.0368
22,ACTGCGCG,-0.107

row,Sequence,PBM E-score
1,CACGGAGG,-0.015
2,CATACGGG,-0.0467
3,CAAGTATA,-0.105
4,ACGGCTGC,-0.121
5,CTCAGGAG,-0.089
6,CAGACTAG,-0.0657
7,CCATCGAA,-0.0466
8,CACCAGTG,-0.0732
9,AGTTTCAC,0.00705
10,CGCTGGAC,-0.277
11,AGAGTGGG,-0.0124
12,ACTTCCGC,-0.0208
13,CAGTTGGG,0.0345
14,ATAATCGA,-0.0285
15,CAGTTCCC,0.157
16,ACGCATAC,-0.101
17,ACCGTCGC,0.045
18,CGCAGTCA,-0.0913
19,ACATGACT,-0.251
20,CTATTGCA,0.0274
21,ACCTGTGG,0.0592
22,GTACAAGA,0.0938

row,Sequence,PBM E-score
1,AGCTGTTA,-0.0623
2,CTCCTAGA,-0.279
3,CAAATAGA,0.0322
4,AGAACCCT,0.321
5,AAGCTGTA,0.138
6,ATTGAGCA,-0.169
7,AAAATGAC,0.122
8,ACCCTCGA,0.143
9,CTTCAATC,-0.121
10,ACATTAAT,0.134
11,CGGAGGGC,-0.25
12,AACCTAGC,-0.0738
13,AGAGAGAG,-0.239
14,CCGTTGGA,-0.122
15,ATAACCCA,0.472
16,GATTGTCA,-0.0124
17,TCCGACGA,-0.11
18,TGCGTCAA,-0.105
19,CATTGCAC,0.062
20,CAATTCCC,-0.0011
21,ACCAATAA,0.0975
22,CTGCGTAA,0.0348

row,Sequence,PBM E-score
1,CACCCAAA,0.255
2,CTTTTGCA,0.194
3,AAATTCAG,-0.036
4,TCCAGGAA,-0.0442
5,CCATAGGA,0.0329
6,ATCCAGAG,-0.019
7,GAACCACC,0.132
8,AGTCAGCG,-0.219
9,GTGCAAAA,-0.0534
10,TCGCAAGA,-0.0187
11,TCCCCTAA,0.0699
12,CTTGACGC,-0.107
13,GTCGGAGA,-0.0786
14,ACTGCTGC,-0.147
15,ACTTGCGG,-0.312
16,ACCAGCTG,-0.0716
17,AAGTCAGG,0.00226
18,TACGTACA,-0.0868
19,CATATCAA,0.0465
20,CGCTAGGC,-0.241
